The values below come from the RNAGym collection of RNA variant scans (doi:10.7554/elife.90254).

The chains are these.
B1: LINE1-mini (parent)
chain: GGCAGAGCUCAACACAGCGUGGCAAAGUGGCUGUGGCUAGACUGCC

Read counts are not given, so values of variants with three or more changes are uncertain.

This data set covers variants of B1. The data set can be described thus: self-cleavage, relative activity (ratio to wild type); higher = more cleavage; in vitro, sequencing; the parent is a self-cleaving ribozyme.
As for G5C U32G U34G A41G, the self-cleavage was 0.02. Turning to G2C A6U G7U A16C G21A C42A, the self-cleavage is 0.76. Next, A4C A11U U34G C37U G44C: 0.01; C3A G5A C23A A41G C42A: 0.74. Turning to G1U A11C C31U, the self-cleavage is 0. To U20C G30A G35A belongs 0.16; to C8G C23U U28C, 0.25; to U20A G21U C31A G36A, 0.02. In the case of A6G C8G A41U, the self-cleavage amounted to 0.08. As to A6U A11U A16U G29A C31G, the self-cleavage amounted to 0.02. Next, G2C C10U G17A C23G U43G: 0; G2A G7C C8G U20C G40C G44A: 0.07; G2C A11C G19A: 0.01.

Turning to G22C U28A U34A, the self-cleavage worked out at 0.18. Next, G22U A26G G35C: 0.18; C18U G19U A39U: 0.24. Next, U28C G35A A41U: 0.2; G1A G21C C31U U32A: 0.09; G1A A6C C10A C18U U34G C37A G40A G44U: 0.05. Next, G7U A12U C23G A41C: 0.07; A12U A16U G17C C37U: 0.07. A26G G29C C42G: the self-cleavage is 0. For the variant G1C C13U C31A U32G, the self-cleavage stood at 0.01. Consider G2C G17U G36U, for which the self-cleavage turned out to be 0.04.

For G1A U28C U38C A39G, the self-cleavage was found to be 0.05. Next, U9C C10U A14G A39U: 0.02. For U9G A16U C31G, the self-cleavage is 0.03. To C3A G33C G35C belongs 0.02; to A11U G33U U43A C46U, 0.02; to G2C U9A C15U G22C A41C, 0.02. With C23G G27U U43A, the self-cleavage was found to be 0.03.

Consider G7A A26G A39U C45A, for which the self-cleavage was found to be 0.39.

As for G1U C8G G44U, the self-cleavage was determined as 0.01.

Take G5A A12G C15U G29C U38A: the self-cleavage was 0.29. To G21U U34G C45A belongs 0.04; to U20G U34G A41U, 0.07. Next, A4U G5U G40U A41U C46U: 0.46; C10U G17C G29U G36A: 0.03; A11C U20A G21U U43A: 0.

With A6U C13U C18U G30U, the self-cleavage came to 0.06. With C10A A24C A39C, the self-cleavage is 0.05.

As to A4C C8U A16U G17U, the self-cleavage was determined as 0.02. Next, G1U A4C A39U: 0.02; G7A A11C C13U C18G G33A G35U C42G G44U: 0.01; C10A A14G C18U A26C G27U: 0.01. To U9G C15A C18A G29C belongs 0.08. For the variant G22U C31A G33A, the self-cleavage is 0.06. For the variant G22C G30U A41G, the self-cleavage turned out to be 0.33. In the case of U9C G21A G33U A41G, the self-cleavage turned out to be 0.02. Next, C3G A4C G5C G21U: 0.07. Next, G5U C18G U28G A41G: 0.04.

In the case of G7C A14U G29C, the self-cleavage turned out to be 0.16. Next, A12C G36U A41G: 0; G17A G27C U38C G40C: 0.06.

In the case of A4U G22A A39G, the self-cleavage is 0.1. For C8G A16U G17A A24G, the self-cleavage came to 0.09. Regarding G2A C3U G5C G19C G30A, the self-cleavage came to 0.77. C10G G33U C46G: the self-cleavage is 0. To A6G C8A C15A G30A U38G belongs 0.25. Next, G21C G27C C31G U32A: 0.01; C23A A24U G27U U38A U43G C45U C46G: 0.02; A24U A39G C42A: 0.26. On to C3A U20G C37A G44A, for which the self-cleavage amounted to 0.11. Consider C8U C13U G21U, for which the self-cleavage stood at 0.03. As to G7U G35U C45A, the self-cleavage came to 0.1. C13G C31A C37G C42A: the self-cleavage came out at 0.02. To G21A A26C G27A G40C C45U belongs 0.02. With A4G C15G G21U G22U G27C G29A, the self-cleavage worked out at 0.01.

As for A25C C31A U38C, the self-cleavage is 0.09. Next, G2A A4C G29U C37G: 0.16; G19U G21U G40U: 0.12. Next, G2C C10A C13G G33A: 0.01; G21A U34G C45A: 0.05. A4G U20C G40U: the self-cleavage stood at 0.09. Regarding A12G A25U A41G, the self-cleavage is 0.01.

For G2A G22U C31U A39U A41U G44A, the self-cleavage worked out at 0.02. As for G5U G17U C18A G21C G22A C31U A39U C46A, the self-cleavage came out at 0.07.

In the case of A16U C18G G29A C37G A41G, the self-cleavage was determined as 0.06.

In the case of G7A G33U G40U, the self-cleavage turned out to be 0.27. To C15A G29C C45U belongs 0.03; to A24G G33A U34A G40A C46G, 0.16. To G17U G19C G29C C31U C45A belongs 0.02. On to G1U G5A A6G, for which the self-cleavage is 0.06. Take C3G A11C A14U C15A U28G G30A G36A: the self-cleavage was 0.02. Turning to G1U U9G U28G G36A C37A, the self-cleavage turned out to be 0.04. On to G2C C15U C18U G40A, for which the self-cleavage turned out to be 0.01.

A14G G19U U20C: the self-cleavage was 0.28.

Take U9G G27C C37A U38C U43A: the self-cleavage amounted to 0.06. Next, C8A G21U G27C G33C U34A G40A: 0.01.

On to G17U C18A U28A, for which the self-cleavage came out at 0.09.

On to C3U A4C C10U G19A, for which the self-cleavage is 0.09. To U9C A41U C46U belongs 0.04; to U20G A25U C37U G40C, 0.03. To G21A G30C A39U C42A belongs 0.02; to C3G C8U G17C C46U, 0.29; to G1U C13A C31G, 0.01. Next, A11U C13U G17A U20G: 0.01; G5C A12C C46G: 0.03; G7U C8U G19A A26C C37U C42U G44C: 0.02. For the variant C13A C18G G19A G30A, the self-cleavage was 0.14.

For C10A A16U A24U G40A, the self-cleavage was 0.02.

In the case of G19A G30C G40A C42U C46U, the self-cleavage was determined as 0.02. For C10G G29C U34G G35U, the self-cleavage came out at 0.02.

For G30A C37U A41U, the self-cleavage came out at 0.04. Take C15G A16U A41G: the self-cleavage came out at 0.01. In the case of C3G U9G G17A C31G, the self-cleavage is 0.26. To G21C G35U U43A G44C belongs 0.04; to G29U C31A G35A U38C, 0.03; to A12U U20C G21U U32G G35U, 0.09. To A12U G21U A25G G36C belongs 0.05; to G2U U32C U38A U43C, 0.02. As for C3A C10U C15A U20G G29U U32A A41G C45A, the self-cleavage turned out to be 0.03. To A26U G33C G35C C45G belongs 0.05; to A12U U32G A39C C42G C46G, 0.01.

For G2C C10A C31A C37U G44U C46A, the self-cleavage was 0. Next, G19U G21U A26C C46G: 0.19; G7C C13U C15A G22U A25G A26G G40C: 0.02; U20G A26U G29U U34C: 0.06. To G1A G5U G22U belongs 0.07. As to C10G G33C G40A C45U, the self-cleavage is 0.01.

Consider G1A U9G G27U G44C, for which the self-cleavage was 0.17.

On to C15A G19C G21U G30U C42U, for which the self-cleavage came out at 0.02. Next, G2C C8G U9G C15G G36U: 0.03. To C10A A16U G36U C37U C46U belongs 0.01. Next, G2A G22A U38A: 0.24; G7C G19U G29C G40A A41C: 0.02; G2C C8G G33U: 0.08.

Regarding C13A G17U G19A C23G G36C U38G, the self-cleavage turned out to be 0.03.

With G2U G27U G29C G35U, the self-cleavage is 0.02. To C10A G19A U20A A26U U38G C42G U43A belongs 0. To G1U C10A A24U belongs 0.02.

Consider G5C C15A A41G, for which the self-cleavage worked out at 0.05. To U20C G40A A41C C45U belongs 0.06.

For the variant A4G G29A G35A C37U U43G G44A, the self-cleavage came out at 0.01. Next, C3A G5U A24U A39C C46A: 0.29; G5A A6G G29U: 0.13; C8U G35U C45U: 0.39. For U20G C31A G36U, the self-cleavage amounted to 0.11.

Consider A4G A6C C18A, for which the self-cleavage is 0.2. To C10U A11G C15G G36A C42U belongs 0.03. Next, G17C C23U G29U G33U A41U: 0.02. As to C8A C15U G30C, the self-cleavage is 0.05. To C3G U20C A25G C42G C46G belongs 0.02; to C10A A24U G30C, 0.05.

For C18A C23G G36U G40U, the self-cleavage came out at 0.59. Next, C8A A12G G30U: 0.08. For the variant C15A A26U U38G U43C, the self-cleavage stood at 0.01.

As to A4C A41U C46U, the self-cleavage turned out to be 0.06. For the variant G2U C3A G19U C42G, the self-cleavage amounted to 0. Next, U9C G19C G29U C37G: 0.02; A14G G30U U38C: 0.1; A4G C15A A16G C31U: 0.15. On to U9A G33C G40U, for which the self-cleavage was determined as 0.14.

For G5U A26C U38G, the self-cleavage worked out at 0.

Take A4G U32G G35U: the self-cleavage was determined as 0.09. To C8G C15A C37G belongs 0; to G2U U9A U34G, 0.03; to G27A G29C C46A, 0.53.

For the variant A4U G5U G7A, the self-cleavage came to 0.4. Next, A12G A16C C18G: 0; G7A A39C C46A: 0.26. For the variant C18A G27U G33U, the self-cleavage was determined as 0.06.

With A4G U20G G40C, the self-cleavage came out at 0.21. Next, C10U C15U C18U G19U: 0.35.

As for G2C A12U C45U, the self-cleavage amounted to 0.12. To A12G U34A G35C G40C U43G belongs 0.03; to A6U A14U C23G U38A, 0.9.
